Measured values reported in PubChem BioAssay (NCATS).
Inconclusive results, whose numbers are uncertain, are shown with a selection of clear calls. A potency beside an inconclusive call is a rough fit, not a confirmed value. Activity calls are given as the source filed them. Calls follow the shape of the dose curve; as a rule, active = well fitted curve in the direction sought with a large enough effect; inconclusive = small, poorly fitted or top-dose-only effect, or another doubt; inactive = no such curve, though single readings can be large; an effect the other way counts as inactive or inconclusive.

Key:
[1] = molecular target: Rap guanine nucleotide exchange factor 3 (Homo sapiens) (UniProt O95398); experiment: Confirmatory qHTS for antagonist of cAMP-regulated guanine nucleotide exchange factor 3 (EPAC1) (AID 1645880); conditions: EPAC1 Rap1B-BODIPY-GDP exchange, fluorescence; activity, negative = inhibition: at 115 µM (top of the series); also: nearly all actives have a fitted effect of over 55% in size;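 as to activity, negative = inhibition: plate controls were DMSO only for no effect and full effect of the ATA control for full effect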
In short: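 Nucleotide exchange uses 100 nM EPAC1, 250 nM RAP1B-BODIPY-GDP and 50 uM GDP, with compounds in a concentration-titration series. After 5 min at room temperature, fluorescence (480 nm ex/540 nm em) is read every 5 min for 30 min. Data are normalized to control ATA and DMSO.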

[2] = molecular target: Rap guanine nucleotide exchange factor 3 (Homo sapiens) (UniProt O95398); experiment: Counterscreen qHTS for agonist of cAMP-regulated guanine nucleotide exchange factor 3 (EPAC1) (AID 1645889); conditions: EPAC1 Rap1B-BODIPY-GDP exchange, fluorescence; activation: at 154 µM (top of the series) unless noted; also: nearly all actives have a fitted effect of over 40% in size; as to activation: % of control where 0% means no effect
In short: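 Measured: fluorescence of BODIPY-GDP bound to Rap1B, which falls as exchange proceeds. Conditions include 50 uM competing GDP, 5 and 30 min reads, and a later cAMP challenge for antagonist detection.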
Potency is read from the fitted curve at half-maximal effect; tags tell the direction and shape of the fitted curve.

Chain of UniProt O95398 (O95398 whole entry, looked up): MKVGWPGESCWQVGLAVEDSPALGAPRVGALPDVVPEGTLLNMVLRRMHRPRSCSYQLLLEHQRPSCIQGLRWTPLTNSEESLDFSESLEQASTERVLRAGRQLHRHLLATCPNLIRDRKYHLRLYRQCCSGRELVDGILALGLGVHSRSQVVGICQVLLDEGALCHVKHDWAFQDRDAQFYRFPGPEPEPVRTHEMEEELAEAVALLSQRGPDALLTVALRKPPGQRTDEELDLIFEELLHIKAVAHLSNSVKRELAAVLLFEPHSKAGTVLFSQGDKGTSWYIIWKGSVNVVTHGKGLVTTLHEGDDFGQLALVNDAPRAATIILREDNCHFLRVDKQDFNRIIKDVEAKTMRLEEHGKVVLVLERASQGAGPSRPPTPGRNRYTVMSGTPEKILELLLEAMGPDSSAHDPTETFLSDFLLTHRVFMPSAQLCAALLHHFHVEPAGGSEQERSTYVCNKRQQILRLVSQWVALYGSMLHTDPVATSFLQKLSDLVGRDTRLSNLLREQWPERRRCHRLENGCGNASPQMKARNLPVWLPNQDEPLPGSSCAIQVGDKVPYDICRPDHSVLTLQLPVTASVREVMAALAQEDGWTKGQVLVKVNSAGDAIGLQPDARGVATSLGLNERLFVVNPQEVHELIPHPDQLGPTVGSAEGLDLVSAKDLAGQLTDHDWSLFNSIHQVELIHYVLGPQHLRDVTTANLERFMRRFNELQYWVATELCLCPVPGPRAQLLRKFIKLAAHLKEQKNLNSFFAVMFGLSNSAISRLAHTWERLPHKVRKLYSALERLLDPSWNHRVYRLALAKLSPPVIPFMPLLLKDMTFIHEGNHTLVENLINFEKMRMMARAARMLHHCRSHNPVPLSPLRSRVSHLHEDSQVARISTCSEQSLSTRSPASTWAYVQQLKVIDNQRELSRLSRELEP

Row | Structure (SMILES) | Potency [1] | Potency [2] | activation [2]
1 | Cc1ccc(OCC(=O)Nc2ccc(Cl)c(-c3nc4ccccc4[nH]3)c2)cc1C | inconclusive: 84.9 µM [inhibitor, partial curve, poor fit] | inconclusive: 25.1 µM [activator, partial curve, poor fit] | –
2 | CCCCn1c(N)c(N(CCC(C)C)C(=O)c2ccc(COc3ccccc3)o2)c(=O)[nH]c1=O | inconclusive: 25.1 µM [inhibitor, partial curve, poor fit] | – | inactive: 7.33% [at 30.8 µM]
3 | COC(=O)[C@H](Cc1ccccc1)NC(=O)c1ccc2ccccc2n1 | inconclusive: 2.24 µM [inhibitor, partial curve] | – | inconclusive: 55.7% [activator] [at 30.8 µM]
4 | COc1ccc(NC(=O)Cn2cnc3sc(C)c(S(=O)(=O)N4CCOCC4)c3c2=O)c(OC)c1 | inactive | – | inactive: 3.18% [at 30.8 µM]
5 | CC(NS(=O)(=O)OCC(Cl)(Cl)Cl)c1ccc(C(C)(C)C)cc1 (stereo not drawn) | inconclusive: 28.2 µM [inhibitor, partial curve] | inconclusive: 20 µM [activator, partial curve, poor fit] | –
6 | CCN(CC)c1nc2ccccc2n(Cc2cccc(OC)c2)c1=O | inactive | inactive | –
7 | COc1ccc(C(=O)/C=C/c2ccccc2)c(OC)c1 | inconclusive: 9.53 µM [inhibitor, partial curve] | – | inconclusive: 40.9% [activator]
8 | Cc1cccc(NC(=O)CSCC(=O)Nc2cccc(S(=O)(=O)N3CCCCCC3)c2)c1 | inconclusive: 39.8 µM [inhibitor, partial curve, poor fit] | – | inconclusive: 49.7% [activator] [at 30.8 µM]
9 | O=C(Nc1cccc(S(=O)(=O)NC2=NCCCCC2)c1)c1cc(-c2ccc(Cl)cc2)nc2ccccc12 | inconclusive: 75.7 µM [inhibitor, partial curve, poor fit] | inconclusive: 0.01 µM [activator, full curve, poor fit] | –
10 | CC1CCC(NC(=O)Cn2c3c(c(-c4ccccc4Cl)cc2=O)CCC3)CC1 (stereo not drawn) | inconclusive: 50.1 µM [inhibitor, partial curve, poor fit] | – | inactive: 6.93% [at 30.8 µM]
11 | COc1ccc(CN(C(=O)c2ccco2)c2ccc(C)c(C)c2)cc1 | inconclusive: 0.562 µM [inhibitor, full curve, poor fit] | – | inactive: 12.3% [at 30.8 µM]
12 | O=C(O)CCNC(=O)c1ccc(NC(=O)C(c2ccccc2)c2ccccc2)cc1 | inactive | inconclusive: 0.0631 µM [activator, full curve] | –
13 | CC(C)N1CCc2c(sc(NC(=O)c3ccc(S(=O)(=O)N4CCCCC4C)cc3)c2C(N)=O)C1 (stereo not drawn) | active: 89.1 µM | – | inconclusive: 35.2% [activator] [at 30.8 µM]
14 | COc1ccc(NC(=O)c2c(-c3ccccc3)c(-c3ccccc3)nn(C)c2=O)cc1OC | inactive | – | inconclusive: 43% [activator]
15 | O=C(/C=C/c1ccccc1Cl)c1ccc(O)cc1 | inconclusive: 35.5 µM [inhibitor, partial curve, poor fit] | – | inconclusive: 50.8% [activator] [at 30.8 µM]
16 | N#C/C(=C\C1=C(N2CCOCC2)C(=C/c2cccc([N+](=O)[O-])c2)/CC1)C(=O)Nc1ccccc1F | active: 47.8 µM | inactive | –
17 | Cc1cccc(N2CCN(C(=O)c3[nH]c(C(F)(F)F)nc3-c3ccccc3)CC2)c1C | inconclusive: 84.9 µM [inhibitor, partial curve, poor fit] | – | inconclusive: 39.1% [activator]
18 | Cc1ccc(-c2nnc(Nc3ccc(OCC(N)=O)cc3)c3ccccc23)cc1S(N)(=O)=O | inconclusive: 67.5 µM [inhibitor, partial curve] | inactive | –
19 | Cc1ccc(C2CC(=O)Oc3cc(C)cc(C)c32)cc1 (stereo not drawn) | inactive | inconclusive: 20 µM [activator, partial curve, poor fit] | –
20 | C[C@H]1CN([C@@H](C)CO)S(=O)(=O)c2ccc(Br)cc2O[C@@H]1CN(C)Cc1cccc(F)c1 | inconclusive: 79.4 µM [inhibitor, single point] | inconclusive: 7.08 µM [activator, partial curve, poor fit] | –
21 | O=C(Nc1cccc(Cl)c1)Nc1ccccc1NS(=O)(=O)c1cccs1 | inconclusive: 2.82 µM [inhibitor, partial curve] | inconclusive: 6.31 µM [activator, partial curve, poor fit] | –
22 | O=C1NC[C@H](Cc2ccccc2)N(C[C@@H]2CCCN2C[C@H](Cc2ccc(O)cc2)N2C[C@H](Cc3ccc(O)cc3)N(CC3CCCCC3)C(=O)C2=O)C1=O | inconclusive: 50.1 µM [inhibitor, partial curve] | inconclusive: 0.0282 µM [activator, full curve, poor fit] | –

Row | Structure (SMILES) | Potency [1] | Potency [2] | activation [2]
23 | O=C(O)c1ccc(NC2=C/C(=N/S(=O)(=O)c3cccs3)c3ccccc3C2=O)cc1 | active: 60.1 µM | inconclusive: 0.708 µM [activator, full curve] | –
24 | COc1ccc(C(=O)N(Cc2ccccc2)c2cccc(C)c2)c(OC)c1OC | inactive | – | inconclusive: 45.6% [activator]
25 | O=C(CCNC(=O)c1ccccc1Cl)NCC(c1ccc(F)cc1)N1CCOCC1 (stereo not drawn) | inactive | – | inconclusive: 34.9% [activator]
26 | CCc1nc2c(OCc3ccc(C(F)(F)F)cc3)cccn2c1N(C)C(=O)c1ccc(C)cc1 | inconclusive: 37.9 µM [inhibitor, partial curve, poor fit] | inconclusive: 14.1 µM [activator, single point] | –
27 | Cc1ccc(NC(=O)c2cccc(NC(=O)/C=C/c3ccco3)c2)cc1C | active: 39.8 µM | – | inactive: 5.53% [at 30.8 µM]
28 | COc1ccc(C(=O)CC2(O)C(=O)N(Cc3cccc(C(F)(F)F)c3)c3ccccc32)cc1 (stereo not drawn) | inconclusive: 95.3 µM [inhibitor, partial curve, poor fit] | inconclusive: 8.91 µM [activator, partial curve, poor fit] | –
29 | C=CCOc1ccc(/C=C2\SC(=S)N(C(C(=O)O)c3ccccc3)C2=O)cc1 (stereo not drawn) | active: 31.6 µM | inconclusive: 1.26 µM [activator, partial curve, poor fit] | –
30 | COc1cc2c(C#N)c(N3CCCC3)nc(N)c2c(N)n1 | active: 37.9 µM | inconclusive: 10 µM [activator, partial curve, poor fit] | –
31 | Cc1cc(C(=O)COC(=O)C2COc3ccccc3O2)c(C)n1CC1CCCO1 (stereo not drawn) | inactive | inactive | –
32 | Oc1c(C2=NCCNC(C(F)(F)F)=C2)ccc2ccccc12 | inconclusive: 0.151 µM [inhibitor, partial curve, poor fit] | inconclusive: 5.01 µM [activator, full curve] | –
33 | CCCCSc1nc2c(c(=O)n1CC)SC(C)C2 (stereo not drawn) | inactive | – | inactive: 5.23% [at 30.8 µM]
34 | COc1ccc(C2CC(=O)C3=C(C2)NC(C)=C(C#N)C3c2ccc(N(C)C)cc2)cc1 (stereo not drawn) | inconclusive: 35.5 µM [inhibitor, partial curve] | – | inactive: 20% [at 30.8 µM]
35 | CC1=NN(c2ccccc2)C(=O)C1C(=O)c1cc([N+](=O)[O-])cc([N+](=O)[O-])c1 (stereo not drawn) | inconclusive: 10.7 µM [inhibitor, full curve, poor fit] | – | inconclusive: 58% [activator]
36 | CCc1ccc(OCC2c3cc(OC)c(OC)cc3CCN2C(C)=O)cc1 (stereo not drawn) | inconclusive: 47.8 µM [inhibitor, partial curve, poor fit] | inactive | –
37 | CCn1c2c(c3cc(Cl)ccc31)CCCC2=O | inconclusive: 0.0213 µM [inhibitor, full curve, poor fit] | inconclusive: 0.251 µM [activator, full curve, poor fit] | –
38 | COc1ccc(OC)c(CCNC(=O)c2ccc(CS(=O)(=O)c3ccc(Br)cc3)o2)c1 | inconclusive: 84.9 µM [inhibitor, partial curve, poor fit] | inactive | –
39 | Oc1c(C(Nc2nccs2)c2ccc(C(F)(F)F)cc2)ccc2cccnc12 (stereo not drawn) | inconclusive: 6.31 µM [inhibitor, partial curve, poor fit] | – | inactive: 3.72% [at 30.8 µM]
40 | COc1ccccc1[C@]1(C)ON(c2ccccc2C(F)(F)F)C1=O | inconclusive: 37.9 µM [inhibitor, partial curve] | inconclusive: 22.4 µM [activator, partial curve, poor fit] | –
41 | CCOc1ccccc1Oc1ncnc2c1oc1ccccc12 | inconclusive: 84.9 µM [inhibitor, single point] | – | inconclusive: 106% [activator]
42 | COc1cc2c(cc1OC)C(COc1cc(C)cc(C)c1)N(C(C)=O)CC2 (stereo not drawn) | inconclusive: 44.7 µM [inhibitor, partial curve, poor fit] | inconclusive: 0.01 µM [activator, full curve, poor fit] | –
43 | CCOC(=O)c1cc2c(=O)n3ccccc3nc2n(Cc2ccco2)c1=NC(=O)c1ccc(Br)cc1 | active: 75.7 µM | – | inconclusive: 50.9% [activator]
44 | COc1cnc(-c2ccccc2)c(-c2ccccc2)n1 | inactive | – | inactive: -4.28% [at 30.8 µM]
